Data taken from paper PMC4336329 (PLoS ONE, 2015).
Screen size: about 310,000 compounds; about 2,200 (0.71%) showed an effect of 50% or more. The effect is printed as a negative number. The list shows a part of the results.

biological target: human ether-à-go-go-related gene (hERG) potassium channel (human, UniProt Q12809); test: primary screen, population patch clamp on CHO cells stably expressing hERG
Sequence (Q12809 whole entry, looked up): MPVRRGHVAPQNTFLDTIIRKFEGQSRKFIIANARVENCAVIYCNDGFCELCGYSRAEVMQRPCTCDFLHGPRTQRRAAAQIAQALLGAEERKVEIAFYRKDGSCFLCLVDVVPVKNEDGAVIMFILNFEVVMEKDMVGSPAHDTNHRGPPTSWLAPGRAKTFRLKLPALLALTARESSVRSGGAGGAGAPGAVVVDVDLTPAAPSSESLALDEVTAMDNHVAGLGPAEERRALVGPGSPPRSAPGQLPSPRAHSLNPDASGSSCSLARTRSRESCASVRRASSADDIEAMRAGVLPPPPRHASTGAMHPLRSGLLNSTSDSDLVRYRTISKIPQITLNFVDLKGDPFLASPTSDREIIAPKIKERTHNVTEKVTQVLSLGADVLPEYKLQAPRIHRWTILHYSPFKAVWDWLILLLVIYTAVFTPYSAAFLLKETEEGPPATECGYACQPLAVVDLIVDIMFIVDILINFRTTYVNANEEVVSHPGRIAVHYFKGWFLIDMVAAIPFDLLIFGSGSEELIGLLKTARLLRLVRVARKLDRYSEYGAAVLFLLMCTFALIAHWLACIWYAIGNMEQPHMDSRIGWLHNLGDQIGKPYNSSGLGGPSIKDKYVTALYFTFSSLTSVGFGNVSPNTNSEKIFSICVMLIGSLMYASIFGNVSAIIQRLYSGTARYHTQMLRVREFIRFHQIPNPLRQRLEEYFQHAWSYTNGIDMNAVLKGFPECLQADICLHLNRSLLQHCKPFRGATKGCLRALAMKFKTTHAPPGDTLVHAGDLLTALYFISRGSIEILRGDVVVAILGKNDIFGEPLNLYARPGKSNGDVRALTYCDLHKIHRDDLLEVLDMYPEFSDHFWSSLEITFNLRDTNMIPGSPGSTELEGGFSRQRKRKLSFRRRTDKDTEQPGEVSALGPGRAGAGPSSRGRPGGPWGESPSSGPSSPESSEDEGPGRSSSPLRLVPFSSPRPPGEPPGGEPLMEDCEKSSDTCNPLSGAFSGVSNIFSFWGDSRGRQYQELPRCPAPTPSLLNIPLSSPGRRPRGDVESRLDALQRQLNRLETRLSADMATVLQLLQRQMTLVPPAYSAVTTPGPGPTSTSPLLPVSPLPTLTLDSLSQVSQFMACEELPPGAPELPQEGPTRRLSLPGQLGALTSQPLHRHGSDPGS

| SMILES | hERG current change (%, negative = inhibition) at 1uM [%] |
| --- | --- |
| Cc1ccc(NC(=O)Cn2c(O)c(N=NC(N)=O)c3ccccc32)cc1 | -3.88 |
| CCS(=O)(=O)Nc1cccc(C2=NN(C(C)=O)C(c3cccs3)C2)c1 (stereo not drawn) | 17.2 |
| O=C(CN1C(=O)c2ccccc2C1=O)NCc1ccc(C(=O)O)cc1 | 12.6 |
| C[C@H](CCC(=O)O)[C@H]1CC[C@H]2[C@@H]3[C@@H](O)C[C@@H]4C[C@H](O)CC[C@]4(C)[C@H]3CC[C@]12C | 5.06 |
| NC(=O)C1=C[C@@H](c2coc3ccccc3c2=O)C[C@@H](OCCCCO)O1 | 7.66 |
| CN(CC(=O)Nc1ccccc1Br)C(=O)CN1CCN(c2ccccc2Cl)CC1 | 6.12 |
| Cc1ccc(S(=O)(=O)N2CCC(C(=O)Nc3ccccc3N3CCCCC3)CC2)cc1C | -3.96 |
| O=C(CN1CCN(c2ccccc2O)CC1)NC(=O)NCc1ccco1 | 1.07 |
| CC1C(Br)C(=O)NC(=O)N1Cc1ccccc1 (stereo not drawn) | 14.2 |
| CCOC(=O)c1c(C)[n+]([O-])c2ccc3c(non3O)c12 | 13.3 |
| Cc1c(Cl)cccc1-c1ccc(CNCc2ccccn2)o1.Cl | 9.72 |
| NS(=O)(=O)c1ccc(CCNS(=O)(=O)c2cccs2)cc1 | 7.48 |
| O=c1[nH]cc(S(=O)(=O)N2CCN(c3cccc(Cl)c3)CC2)c(=O)[nH]1 | -7.64 |
| COc1cc(C(C)=O)ccc1OCCCN1CCC(Cc2ccccc2)CC1.O=C(O)C(=O)O | -82.8 |
| Cc1ccc2c(c1)C1NC(=S)NC(C)(O2)C1C(=O)Nc1ccc(Cl)cc1 (stereo not drawn) | 14.5 |
| CCOC(=O)Cc1c(C)nc(SC)[nH]c1=O | 14.7 |
| O=S(=O)(Nc1c(F)cccc1F)c1ccc2c(c1)OCCO2 | 11.6 |
| CC(=O)c1ccc(NC(=O)c2sc3nc4n(c(=O)c3c2C)CCCCC4)cc1 | 1.94 |
| Cn1c(C(=O)NCc2ccccn2)cc2c(=O)n3ccccc3nc21 | 7.21 |
| Cc1cc(=O)oc2cc(OC(=O)C3CCN(C(=O)c4ccc(F)cc4)CC3)ccc12 | 11.1 |
| Cc1csc2c(N3CCN(C(=O)c4ccc(C(C)(C)C)cc4)CC3)ncnc12 | 2.51 |
| O=C(CN(C(=O)CCC(=O)Nc1ccccn1)c1cccc(F)c1)NCc1ccc(F)cc1 | 3.47 |

| SMILES | hERG current change (%, negative = inhibition) at 1uM [%] |
| --- | --- |
| O=C(NCc1ccccc1Cl)c1cccc(C(F)(F)F)c1 | 0.675 |
| c1ccc(-c2cnnc(N3CCOCC3)n2)cc1 | 1.64 |
| CCOC(=O)C1CCN(c2c(NCCN(CC)c3ccccc3)c(=O)c2=O)CC1 | 4.79 |
| COc1ccc(C(=O)O/N=C(\C)c2cnccn2)cc1 | 10.3 |
| Oc1cc2ccccc2cc1-c1nnc2n1-c1ccccc1SC2 | -7.18 |
| CCOC(=O)c1cc(-c2ccc(C)c([N+](=O)[O-])c2)nc2c1c(=O)n(C)c(=O)n2C | 5.91 |
| COC(=O)C1CSc2[nH]c(=O)sc2C1c1ccc(OC)c(OC)c1 (stereo not drawn) | 11.2 |
| CNc1nc(N)c([N+](=O)[O-])c(Nc2cccc(F)c2)n1 | 12.4 |
| O=C(c1cc2c([nH]c1=O)CCCC2)N1CCc2c([nH]c3ccccc23)C1c1ccccc1F (stereo not drawn) | 7.44 |
| CC(c1ccccc1)C(NC(=O)OCC1c2ccccc2-c2ccccc21)C(=O)O (stereo not drawn) | 16.1 |
| CCC(=O)Nc1ccc(Nc2nc(Cl)nc(Nc3ccc(NC(=O)CC)cc3)n2)cc1 | 12.6 |
| O=C(NC(=S)NCCC1=CCCCC1)c1cncc(Br)c1 | 16.6 |
| O=C1C(Cl)=C(NCCN2CCCCC2)C(=O)c2ccccc21 | -4.12 |
| CCCCCCC(=O)NNC(=O)CC(=O)Nc1ccccc1C(=O)O | 16.4 |
| Cc1ccc(C(NC(=O)c2ccccc2S(C)(=O)=O)c2ccccc2)cc1 (stereo not drawn) | 0.0168 |
| CCOC(=O)C1C(=O)NC(N2CCOCC2)=NC1c1ccco1 (stereo not drawn) | 6.67 |
| OCCCc1cn(-c2ccccc2)c2ccccc12 | 10 |
| Cc1c(C)n(C(=O)CSc2nc3ccccc3[nH]2)c2ccccc12 | 8.5 |
| CC(=O)c1cccc(NC(=O)N2CCC(NC(=O)C3CCCCC3)CC2)c1 | 7.36 |
| Cc1nn(C)c(C)c1CN(Cc1nc(-c2cc(F)ccc2F)oc1C)C1CC1 | 5.04 |
| O=C(CN1C(=O)NC2(CCCC2)C1=O)c1ccc(Cl)s1 | 12.2 |
| CCOC(=O)c1c(C)c(C(=O)NCCN2CCOCC2)c(C)n1C | 5.82 |

| SMILES | hERG current change (%, negative = inhibition) at 1uM [%] |
| --- | --- |
| Cc1ccc(NS(=O)(=O)c2ccc3c(c2)CCC(=O)N3)cc1 | 2.43 |
| Nc1nc(SCC(=O)Nc2c(Br)cc([N+](=O)[O-])cc2Br)n[nH]1 | 11.6 |
| CCCCC(=NCCO)C1=C(O)C(C(=O)OC)C(C)(C)CC1=O (stereo not drawn) | 3.94 |
| COCCNC(=O)Cc1ccc(F)cc1 | 7.39 |
| Cc1ccc(N/C=C2/Sc3ccccc3NC2=O)cc1 | 6.22 |
| C/C(=N\Nc1ncnc2sc(C)c(C)c12)c1ccccn1 | 6.42 |
| O=C(Nc1ccccc1C(=O)O)c1cc(S(=O)(=O)N2CCCCCC2)ccc1Cl | 18.8 |
| CCN(CC(=O)Nc1ccc(NC(C)=O)cc1)C(=O)COc1ccc(C(=O)c2ccccc2)cc1 | 10.3 |
| CCOc1cccc(-c2nn3c(-c4ccco4)nnc3s2)c1 | -26.2 |
| CCNC(=O)c1ccccc1-c1nc(-c2ccccc2Cl)no1 | 3.21 |
| O=C(Cn1c2ccc(F)cc2c2nc3n(c(=O)c21)CCS3)N1CCCC1 | 15.6 |
| O=C(Nc1nc2c(s1)CN(Cc1ccccc1)CC2)c1c(F)cccc1F | 8.37 |
| C[C@@H](O)[C@H]1C(=O)N2C(C(=O)O)=C(S[C@@H]3CN[C@H](C(=O)N(C)C)C3)[C@H](C)[C@H]12 | 14.8 |
| O=C(COc1ccc(Br)cc1)N1CCN(c2ncccn2)CC1 | -29.1 |
| O=C(OC(C(=O)NCC1CCCO1)c1ccccc1F)c1ccco1 (stereo not drawn) | 13.9 |
| COc1ccccc1N1CCN(S(=O)(=O)c2cc3[nH]c(=O)c(=O)[nH]c3cc2C)CC1 | 14.1 |
| CCCCn1c(N)c(N(CCOC)C(=O)c2c(CC)noc2C)c(=O)[nH]c1=O | 18.7 |
| CCOC(=O)/C(C(=O)Nc1ccc(Br)cc1)=C1/NC(C)(C)Cc2ccccc21 | 1.22 |
| CC1CCN(S(=O)(=O)c2ccc(C(=O)N3CCCCC3C(=O)O)cc2)CC1 (stereo not drawn) | 15.5 |
| CCC(=O)N1CCc2cc(S(=O)(=O)N3CCN(c4cc(Cl)ccc4C)CC3)ccc21 | 7.86 |
| CC(/C=C/c1ccccc1)=N\NC(N)=S | 13 |
| COc1ccc(C(=O)Nc2ccc(N3CCOCC3)cc2)cc1OC | 8.18 |

| SMILES | hERG current change (%, negative = inhibition) at 1uM [%] |
| --- | --- |
| CCCOC(=O)c1cc(-c2ccc(C=O)o2)ccc1Cl | 3.2 |
| CC1(C)CC(=O)C2=C(C1)Nc1ccccc1NC2 | 8.25 |
| O=C1Nc2ccc(Br)cc2C1(O)c1ccccc1 (stereo not drawn) | 11.2 |
| CCOC(=O)N1CCN(C(=O)c2ccc3c(c2)N=C(C)c2cc(Cl)ccc2S3)CC1 | 12.1 |
| COc1cccc(/C(O)=C2/C(=O)C(=O)N(Cc3cccnc3)C2c2ccco2)c1 (stereo not drawn) | 19.7 |
| Cc1cccnc1NC(=S)NC(=O)c1oc2ccccc2c1C | 10.9 |
| Cc1cc(-c2cccs2)c(C#N)c(=S)[nH]1 | 13.8 |
| O=C(CSc1nnc(Cc2ccccc2)n1-c1ccc(F)cc1)N1CCOCC1 | -2.26 |
| O=C(CSc1nc2c(cnn2-c2ccc(F)cc2)c(=O)[nH]1)N1CCCCC1 | 8.79 |
| N#CC(C#N)=C1C=CC=CN1/C(=C\c1ccco1)C(=O)c1ccc(Cl)cc1 | -1.03 |
| CC(C)(C)[C@H]1C=C(C(=O)N2CCN(Cc3ccc4c(c3)OCO4)CC2)O[C@@H](OCCCCO)C1 | -5.67 |
| C[C@@H](C(=O)Nc1ccc2ccccc2c1)[C@@H]1C[C@@]1(C)[C@@H](NC(=O)c1cccnc1)c1ccccc1 | 11.1 |
| Cc1ccc(C(=O)NCC(=O)N(C)CC(=O)Nc2c(Cl)cccc2Cl)s1 | 13.6 |
| CCOC(=O)COc1ccc(/C=C2/C(=O)NN(c3ccc(F)cc3)C2=O)cc1OC | 11.8 |
| Cc1ccc(C(=O)Nc2ccccc2C(=O)N2CCCC(C)C2)cc1 (stereo not drawn) | 8.04 |
| Cc1ccc(S(N)(=O)=O)cc1 | 14.4 |
| [N-]=[N+]=N[C@@H](CCN1CC[C@H](NC(=O)OCc2ccccc2)CCC1=O)c1ccccc1 | 0.126 |
| COCCNC(=O)C(c1ccccc1C)N(C(=O)Cn1nnc2ccccc21)c1cccnc1 (stereo not drawn) | 4.63 |
| Br.CC(C)CC(N)C(=O)OCc1ccc([N+](=O)[O-])cc1 (stereo not drawn) | 13.7 |
| CSc1nnc(C)c(=O)n1COC(=O)c1ccccc1 | 10.5 |
| O=C(CCCc1nc2ccccc2s1)N1CCN(c2ccccc2)CC1 | -1.64 |
